Laboratory results: article PMC10385607

Molecular target: Murine ALCAM (mouse) (UniProt Q61490)
Sequence of UniProt Q61490 (Q61490 28-527): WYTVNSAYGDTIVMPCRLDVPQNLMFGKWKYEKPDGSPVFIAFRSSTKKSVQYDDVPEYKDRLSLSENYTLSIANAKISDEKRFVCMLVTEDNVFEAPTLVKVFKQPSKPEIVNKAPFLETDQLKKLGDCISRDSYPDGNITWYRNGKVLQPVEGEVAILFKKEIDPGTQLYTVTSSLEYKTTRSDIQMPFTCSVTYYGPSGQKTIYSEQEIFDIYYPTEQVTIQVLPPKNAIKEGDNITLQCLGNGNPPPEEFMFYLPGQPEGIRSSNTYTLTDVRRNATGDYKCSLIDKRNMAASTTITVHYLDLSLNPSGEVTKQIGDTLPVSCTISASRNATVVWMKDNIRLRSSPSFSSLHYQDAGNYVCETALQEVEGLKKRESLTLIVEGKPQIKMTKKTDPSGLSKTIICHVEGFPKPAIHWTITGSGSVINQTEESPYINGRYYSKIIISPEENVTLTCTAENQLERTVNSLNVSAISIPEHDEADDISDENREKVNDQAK

Row | IC50 of DC transmigration across LEC monolayers (DC TM; blocks ALCAM–ALCAM between DCs and LECs) | Binder
1 | 0.44 nM | IF8-Fc (Fc fusion) VH: [no letters for about 100 residues]GYVAFDYWGQGTLVTVSS VL: SSELTQDPAVSVALGQTVRITCQGDSLRSYYASWYQQKPGQAPVLVIYGKNNRPSGIPDRFSGSSSGNTASLTITGAQAEDEADYYCNSSPPFSAEVVFGGGTKLTVL
2 | 0.86 nM | db V2D7 (protein) VH: [no letters for about 100 residues]GYVAFDYWGQGTLVTVSS VL: SSVLTQPPSVSVAPGQTARITCQGDSLRSGYASWYQQKPGQAPVLVVYGKNNRPSGIPERFSGSSSGNTATLTISRVEAGDEADYYCNSSPPFSAEVVFGGGTKLTVL
